Experimental data taken from a collection of fitness landscapes (doi:10.1126/science.1257360).
This is one part of the list.

B1: PhoQ; a variant is named by its letters at X, in order, P23837 (parent)
chain: MKKLLRLFFPLSLRVRFLLATAAVVLVLSLAYGMVALIGYSVSFDKTTFRLLRGESNLFYTLAKWENNKLHVELPENIDKQSPTMTLIYDENGQLLWAQRDVPWLMKMIQPDWLKSNGFHEIEADVNDTSLLLSGDHSIQQQLQEVREDDDDAEMTHSVAVNVYPATSRMPKLTIVVVDTIPVELKSSYMVWSWFIYVLSANLLLVIPLLWVAAWWSLRPIEALAKEVRELEEHNRELLNPATTRELTSLVRNLNRLLKSERERYDKYRTTLTDLTHSLKTPLXXLQXXLRSLRSEKMSVSDAEPVMLEQISRISQQIGYYLHRASMRGGTLLSRELHPVAPLLDNLTSALNKVYQRKGVNISLDISPEISFVGEQNDFVEVMGNVLDNACKYCLEFVEISARQTDEHLYIVVEDDGPGIPLSKREVIFDRGQRVDTLRPGQGVGLAVAREITEQYEGKIVAGESMLGGARMEVIFGRQHSAPKDE

Variants of: B1
Assay: enrichment ratio after two sorts for PhoP signalling (ratio (wild type AVST 3.29)); higher = more functional
Settings: with PhoP (E. coli)
Variant HCIR has an enrichment ratio of at most 0.25. With FPSS the enrichment ratio was at most 0.25. TTPV showed an enrichment ratio of at most 0.25. VSWT was tested, and the enrichment ratio was 6.3. REVL was tested, and the enrichment ratio was at most 0.25. PPEE showed an enrichment ratio of at most 0.25. With IFYI the enrichment ratio was at most 0.25. AKVQ was tested, and the enrichment ratio was 2.82. Variant PSPY has an enrichment ratio of at most 0.25. Variant LTAA has an enrichment ratio of at most 0.25. In the case of LMCG, the enrichment ratio is reported as at most 0.25. Variant YYWF has an enrichment ratio of at most 0.25. GYIP showed an enrichment ratio of at most 0.25. For MRWR, the enrichment ratio was at most 0.25. GFCE gave an enrichment ratio of at most 0.25. QQQG gave an enrichment ratio of at most 0.25. WCWR was tested, and the enrichment ratio was at most 0.25. For TLDL, the enrichment ratio was at most 0.25. In the case of FHII, the enrichment ratio is reported as at most 0.25. In the case of SDLH, the enrichment ratio is reported as 3.78. In the case of FNMV, the enrichment ratio is reported as 5.92. Work on TTKS yielded an enrichment ratio of at most 0.25. In the case of PSHK, the enrichment ratio is reported as at most 0.25. In the case of EFMY, the enrichment ratio is reported as at most 0.25. IQAF gave an enrichment ratio of at most 0.25. Work on DLIN yielded an enrichment ratio of at most 0.25. For DNFC, the enrichment ratio was at most 0.25. RYCH gave an enrichment ratio of at most 0.25. For VFKC, the enrichment ratio was at most 0.25. In the case of DRSR, the enrichment ratio is reported as at most 0.25. With MWFL the enrichment ratio was at most 0.25. In the case of GIVV, the enrichment ratio is reported as 11.3. VLFM showed an enrichment ratio of at most 0.25. Variant SQQI has an enrichment ratio of 2.33. IQYY gave an enrichment ratio of at most 0.25. Work on FCKH yielded an enrichment ratio of at most 0.25. ATHW gave an enrichment ratio of at most 0.25. In the case of HKFI, the enrichment ratio is reported as at most 0.25. MMWT gave an enrichment ratio of at most 0.25. QYIG gave an enrichment ratio of at most 0.25. Variant SFGV has an enrichment ratio of at most 0.25. GTWR gave an enrichment ratio of at most 0.25. FRGS showed an enrichment ratio of at most 0.25. Variant HAYN has an enrichment ratio of at most 0.25. With PAQL the enrichment ratio was at most 0.25. Work on NLLQ yielded an enrichment ratio of at most 0.25. DMMA showed an enrichment ratio of at most 0.25. In the case of LPNC, the enrichment ratio is reported as at most 0.25. Variant FRWG has an enrichment ratio of at most 0.25. For LRQK, the enrichment ratio was at most 0.25. With WWSC the enrichment ratio was at most 0.25. With ATRI the enrichment ratio was at most 0.25. In the case of IDCR, the enrichment ratio is reported as at most 0.25. With YERS the enrichment ratio was at most 0.25. Variant LGMH has an enrichment ratio of at most 0.25. For DIPD, the enrichment ratio was at most 0.25. In the case of SPTA, the enrichment ratio is reported as at most 0.25. In the case of IEAE, the enrichment ratio is reported as at most 0.25. For RPNT, the enrichment ratio was at most 0.25. QVNV gave an enrichment ratio of at most 0.25. For PGQL, the enrichment ratio was at most 0.25. For FPMA, the enrichment ratio was at most 0.25. In the case of MSYK, the enrichment ratio is reported as at most 0.25. LEPK was tested, and the enrichment ratio was at most 0.25. AFWC showed an enrichment ratio of at most 0.25. Variant ASGA has an enrichment ratio of 4.84. SATI was tested, and the enrichment ratio was 8.13. LDFH was tested, and the enrichment ratio was 0.257. MHMQ showed an enrichment ratio of at most 0.25. IMIK showed an enrichment ratio of at most 0.25. With NLQE the enrichment ratio was at most 0.25. For PHLG, the enrichment ratio was at most 0.25. TFFW was tested, and the enrichment ratio was at most 0.25. ESFW gave an enrichment ratio of at most 0.25. QVQL showed an enrichment ratio of at most 0.25. Variant FEQC has an enrichment ratio of at most 0.25. RVLN gave an enrichment ratio of at most 0.25. HCFQ was tested, and the enrichment ratio was at most 0.25. In the case of QHPF, the enrichment ratio is reported as at most 0.25. For VMYW, the enrichment ratio was at most 0.25. MQFF was tested, and the enrichment ratio was 1.63. ENFY gave an enrichment ratio of at most 0.25. Variant RSSN has an enrichment ratio of at most 0.25. Work on MFHG yielded an enrichment ratio of at most 0.25.
